Source: PubChem BioAssay AID686979 (National Center for Advancing Translational Sciences (NCATS), 2013)
The whole screen tested about 420,000 compounds, of which about 50,000 (12%) were called active. Inconclusive means that the source gave no clear call. Such entries were picked first, then a sample of the others. The call rests on the fitted dose curve; in most records, active means well fitted inhibition curve with a large enough effect; inconclusive means small, poorly fitted or top-dose-only effect; inactive means flat fitted curve, though single readings scatter. Potencies of inconclusive entries are left out as doubtful fits.

Assay: qHTS for Inhibitors of human tyrosyl-DNA phosphodiesterase 1 (TDP1): qHTS in cells in presence of CPT; further: nearly all actives have a fitted effect of over 55% in size
Settings: chicken DT40 Tdp1-/-;hTDP1 cells + 20 nM CPT, ATP luminescence, 48 h; activity change, negative = growth inhibition: at 46.2 µM (top of the series) unless noted
How it was run: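 Cell growth measured by CellTiter-Glo luminescence after a minimum 48 h, 37 C compound exposure with 20 nM CPT in Tdp1-knockout DT40 cells stably expressing hTDP1, seeded 400/well; qHTS titration format.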
On the % scale 0 is the no-effect control and ±100 the full control effect; potency means the concentration at half of the fitted maximal effect; tags describe the fitted curve by direction and shape.

SMILES	Potency	activity change, negative = growth inhibition
COc1ccccc1NS(=O)(=O)c1cc(NC(=O)c2ccccc2F)ccc1N1CCOCC1	active: 16.4 µM	
CC1CCN(S(=O)(=O)c2ccc3c(ccc(=O)n3CC(=O)Nc3cccc(F)c3)c2)CC1	active: 14.6 µM	
CCCCOCCCNC(=O)C[C@@H]1C[C@@]2(C(=O)OC)CCCCC=C2N(Cc2ccc3c(c2)OCO3)C1=O	inconclusive [inhibitor, single point]	
Cc1cccc(-c2noc(-c3ccc(N4CCOCC4)c([N+](=O)[O-])c3)n2)c1	inconclusive [inhibitor, single point]	
CC(C)(C)CNc1cc(N2CCOCC2)ccc1[N+](=O)[O-]	inconclusive [inhibitor, single point]	
O=[N+]([O-])c1ccc(Nc2ccc(N3CCOCC3)cc2)c([N+](=O)[O-])c1	inactive	
CCNc1nc(NCC)n2c(SC(C(=O)Nc3cc(C)ccc3C)c3ccccc3)nnc2n1 (configuration not stated)	inconclusive [inhibitor, single point]	
Cc1cccc(NC(=O)c2ccc(C3SCC(=O)N3CCc3ccccc3)cc2)c1 (configuration not stated)	inconclusive [inhibitor, single point]	
COc1ccccc1OCC(=O)NNc1c2ccccc2nc2ccccc12	inconclusive [inhibitor, single point]	
CCCCCCCCN1C(=O)[C@H](CC(=O)NCc2ccccc2)C[C@@]2(C(=O)OCC)CCC=C12	inconclusive [inhibitor, single point]	
Cc1ccccc1C(=O)Nc1ccc(S(=O)(=O)NCC2CCCO2)cc1 (configuration not stated)	active: 10.3 µM	
CCOC(=O)C1CCN(c2nc3c(S(=O)(=O)c4ccc(C)c(C)c4)nnn3c3ccc(Cl)cc23)CC1	inconclusive [inhibitor, single point]	
CC1=C(C(=O)N2CCN(c3cccc(Cl)c3)CC2)C2(CCCCC2)OC1=O	inconclusive [inhibitor, single point]	
CCCCNC(=S)Nc1ccccc1Cc1ccccc1	inconclusive [inhibitor, single point]	
COc1ccc(-c2csc(Nc3cccc(C)n3)n2)cc1OC	inconclusive [inhibitor, single point]	
Cc1ccc(S(=O)(=O)N[C@H](C(=O)OCC(=O)N2N=C(c3ccc(Cl)cc3)CC2c2ccco2)C(C)C)cc1 (some centres not stated)	active: 23.1 µM	
COc1ccc(NC(C)C(=O)Nc2ccc(C(C)(C)C)cc2)cc1Cl (configuration not stated)	active: 29.1 µM	
CSc1ccc(C(=O)C2CCCN(C(=O)c3cccc(N4CCOCC4)c3)C2)cc1 (configuration not stated)	inconclusive [inhibitor, partial curve, poor fit]	
O=C(Nc1cccc(C(F)(F)F)c1)c1cccnc1N1CCCC1	inconclusive [inhibitor, single point]	
COc1ccc(N2CC(C(=O)N3CCCC(C)C3)CC2=O)cc1 (configuration not stated)	inactive	
O=C(Nc1nc2ccccc2s1)c1cnccn1	inconclusive [inhibitor, single point]	
CCOc1ccc(C(=O)Nc2cnn(Cc3ccc(Cl)c(Cl)c3)c2)cc1	inconclusive [inhibitor, single point]	
CCN(C(=O)c1cc2c(=O)oc3ccc(C)cc3c2s1)c1ccccc1C	inconclusive [inhibitor, single point]	

SMILES	Potency	activity change, negative = growth inhibition
CCOC(=O)[C@@H]1CCN(Cc2ccccc2)C[C@H]1c1ccccc1	inconclusive [inhibitor, single point]	
CC(C)C(=O)N1CCC2(CC1)Oc1ccc(Cl)cc1C(=O)C21CC(c2ccccc2)=NO1 (configuration not stated)	inconclusive [inhibitor, single point]	
Cc1nnc(Sc2nc3c(c(=O)n(C)c(=O)n3C)n2Cc2ccc(Cl)cc2)s1	inconclusive [inhibitor, single point]	
CC1CC2(CCCC2)N(C(=O)c2ccccc2)Cc2ccccc21 (configuration not stated)	active: 9.2 µM	
COc1ccc(C(C(=O)NC2CCCC2)N(CCCO)C(=O)Cn2nnc(-c3ccc(C)o3)n2)cc1 (configuration not stated)		inconclusive: -32% [inhibitor]
CCOc1ccc2nc(CN3CCN(Cc4ccsc4)C(CCO)C3)ccc2c1 (configuration not stated)	inconclusive [inhibitor, single point]	
C[C@H]1CN([C@@H](C)CO)C(=O)CCCn2nncc2CO[C@@H]1CN(C)C(=O)c1ccncc1	inactive	
Cc1ccc(OCc2nc(-c3ccc(C(=O)NCc4ccc(OC(C)C)cc4)cc3)oc2C)cc1	inconclusive [inhibitor, partial curve]	
CC(NC(=O)COc1ccc(N(C)S(=O)(=O)c2ccccc2)cc1)c1ccccc1 (configuration not stated)	inconclusive [inhibitor, single point]	
Cc1cc(C(=O)CCC(=O)N2CCN(c3ccccc3O)CC2)c(C)s1	inconclusive [inhibitor, partial curve]	
C=CCOc1ccc(/C=N/n2nnnc2N)cc1OC	inactive	
O=C(Nc1cccc(O)c1)C1CC(c2c(F)cccc2Cl)=NO1 (configuration not stated)	inactive	
O=C(c1ccc(=O)[nH]c1)N(Cc1cccs1)C1(C(=O)NC2CCCC2)CCCCC1	inactive	
Nc1c(C(=O)Nc2cccc(Cl)c2Cl)sc2nc(-c3cccnc3)ccc12	inconclusive [inhibitor, full curve]	
COc1ccc(C2=CC(=O)C[C@H](c3ccc(Cl)cc3)C2)cc1	active: 16.4 µM	
O=C(COC(=O)c1n[nH]c(=O)c2ccccc12)Nc1cccc(S(=O)(=O)N2CCOCC2)c1	inactive	
Cc1nc2scc(C)n2c(=O)c1S(=O)(=O)NCCc1ccccc1	inconclusive [inhibitor, single point]	
CCOc1ccc(N(C)S(=O)(=O)c2ccc3[nH]cc(C(=O)NCc4ccccc4)c(=O)c3c2)cc1	inactive	
COc1cc2nc(N3CCCN(C)CC3)nc(N3CCN(C)CC3)c2cc1OC	active: 14.1 µM	
Fc1c(F)c(F)c(/C=N/NC(=S)Nc2cccnc2)c(F)c1F	inconclusive [inhibitor, single point]	
O=C(CSc1nc2ccccc2c(=O)n1Cc1ccco1)Nc1cccc(O)c1	inconclusive [inhibitor, partial curve]	
CC1CN(CCCCOc2ccc(Cl)c3ccccc23)CC(C)O1 (configuration not stated)	inconclusive [inhibitor, single point]	
COCCNC(=O)CSc1nc2cc(OC)c(OC)cc2c(=O)n1Cc1ccc(OC)cc1	inactive	

SMILES	Potency	activity change, negative = growth inhibition
Cc1cccc2cc(CN(Cc3ccco3)C(=O)Nc3cccc(C#N)c3)c(Cl)nc12	inconclusive [inhibitor, single point]	
O=C(c1ccco1)n1nc(-c2cccnc2)nc1NCc1ccco1	inconclusive [inhibitor, partial curve]	
COc1ccc(Nc2oc(-c3ccc(COc4ccccc4C)o3)nc2C#N)cc1	inconclusive [inhibitor, partial curve]	
CCCCCc1cc(=O)oc2c(C(CCN3CCN(c4ccccc4)CC3)c3ccc4c(c3)OCO4)c(OC)cc(OC)c12 (configuration not stated)	active: 25.9 µM	
CCOC(=O)c1[nH]c(C)c(C(=O)N(C)Cc2ccccc2)c1C		inconclusive: -36.3% [inhibitor]
Cc1ccc(C)c(CN2C(=O)c3ccccc3S(=O)(=O)c3ccc(C(=O)NCCC4=CCCCC4)cc32)c1	inconclusive [inhibitor, single point]	
Cc1ccc2nc3[nH]c(=O)[nH]c(=O)c3c(N)c2c1	inconclusive [inhibitor, partial curve, poor fit]	
O=C1CCCc2c1nc(-c1ccco1)n2O	inactive	
CCN(Cc1ccccc1)C(=O)C1CCN(Cc2ccc(OC)c(OC)c2OC)CC1	inconclusive [inhibitor, single point]	
Cc1ccc(CSc2nc3ccccc3c(=O)n2Cc2ccco2)cc1	inconclusive [inhibitor, single point]	
COc1ccc(N2CCN(C(=O)CSc3n[nH]c(-c4ccccc4Cl)n3)CC2)cc1	inconclusive [inhibitor, single point]	
O=C(NCC1CCCO1)c1ccc2c3n(nc2c1)-c1ccccc1CO3 (configuration not stated)	inconclusive [inhibitor, single point]	
CSc1ccc(S(=O)(=O)NC2CC3CCC2C3)cc1 (configuration not stated)	inactive	
Cc1cc(C)cc(N2C(=O)N(Cc3cccc(F)c3)c3ccccc3S2(=O)=O)c1	inactive	
O=C(c1ccccc1)C(I)(I)N1CCOCC1	inactive	
Cc1ccc(CNC(=O)c2cc(-c3ccc(Cl)cc3)on2)cc1	inactive	
CCN1CCN(c2ncc3c(n2)CC(c2ccccc2O)CC3=O)CC1 (configuration not stated)	inconclusive [inhibitor, single point]	
CCN(CC)S(=O)(=O)c1ccc(NC(=O)c2ccc(Sc3nncn3C)c([N+](=O)[O-])c2)cc1	inconclusive [inhibitor, single point]	
CCc1ccccc1NC(=O)Nc1nnc(N(CC)c2ccccc2)s1	inconclusive [inhibitor, single point]	
COc1cc(OC)c(C(=O)/C=C/c2ccccc2)c(O)c1O	inconclusive [inhibitor, single point]	
COc1ccc(OC)c2sc(N(Cc3cccnc3)C(=O)c3ccco3)nc12	inconclusive [inhibitor, single point]	
